Results on 1 molecule are retold here after article PMC3462613 (Biochemical Journal, 2012).

For the test, the target named is T1, GST (glutathione transferase)–Gemin2 (human, UniProt O14893 1-280).
T1 sequence: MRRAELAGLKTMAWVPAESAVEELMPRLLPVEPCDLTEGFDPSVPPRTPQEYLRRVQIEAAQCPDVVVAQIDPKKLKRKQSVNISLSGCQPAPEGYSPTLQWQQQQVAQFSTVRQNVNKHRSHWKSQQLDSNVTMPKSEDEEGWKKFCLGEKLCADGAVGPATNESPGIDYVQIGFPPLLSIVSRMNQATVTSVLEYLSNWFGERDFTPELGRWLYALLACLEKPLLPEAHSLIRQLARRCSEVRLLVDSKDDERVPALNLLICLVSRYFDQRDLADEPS
Kind of test: pull-down.

Some results are limits rather than exact numbers.

B1: full-length SMN D44V (natural protein)
chain: not shown
Take B1: the “fold difference in binding from wild-type SMN” value is at most 2 fold and the “fold efficiency of binding, without detergent against with detergent” value came to 3 fold.
